“Also recorded” adds a separate entry of the source.
Legend:
[1] = tested on: human pro-myostatin; assay: SEC-MALS binding stoichiometry
Protocol: A combination of size exclusion chromatography and multi-angle light scattering (SEC-MALS) was used to determine the approximate mass and therefore the oligomeric state of the antibodies and their stoichiometry of binding to human promyostatin. The monoclonal antibody (mAb) or its Fab fragment was mixed with 50 μg of human pro-myostatin at a ratio of 1:1, 2:1 or 3:1 (antibody to antigen) for at least 24 hours at room temperature for immune complexes to form, filtered and injected into an analytical SEC column (Waters HPLC with a Superdex 200 10/300), flowed through a refractive index detector and then a miniDAWN® multi-angle light scattering detector to determine the mass. A full-length human-pro-myostatin with an N-terminal His6 tag (SEQ ID NO: 941) was used to express pro-myostatin in HEK cells. The signal peptide present in the construct is cleaved during biosynthesis. The resulting recombinant human pro myostatin was purified using the His6 tag (SEQ ID NO: 941) and used for the experiment.

[2] = Terminal serum antibody exposure, dexamethasone model; assay type: in vivo, mouse; details: day 1 and day 7, dexamethasone-treated mice
Protocol: Antibody exposure and circulating total myostatin levels were measured in the serum collected from the terminal bleeds after treatment with Ab2, Ab130 and Ab109. The results are shown in Table 15 and Table 16 respectively.

[3] = tested on: total myostatin in serum; assay: Circulating total myostatin in serum (acidification ELISA), dexamethasone model; assay type: in vivo, mouse; details: for Circulating total myostatin levels: terminal serum
Text: Briefly, serum samples were acidified at low pH (e.g., pH ˜2.5) to dissociate the bound antibody from the immune complex and to convert all myostatin in the sample to the active form of growth factor (i.e., mature myostatin). Samples were then neutralized and assayed for the presence of mature myostatin on ELISA plates coated with anti-mature myostatin antibodies as capture reagents.

[4] = tested on: diet-induced obese mice on liraglutide; assay: High fat diet (DIO) mice treated with liraglutide and antibody; assay type: in vivo, mouse
Protocol: Caloric restriction causes loss of both fat and lean mass; inhibiting myostatin maintains lean mass during weight loss. […] Changes in body composition were assessed by qNMR readout for fat mass and lean mass; gastrocnemius weight; and inguinal and perigonadal fat pad weight.
Ten-week-old male mice were fed formula D12492 ad lib, a high-calorie diet comprised of 60% fat, and remained on this diet throughout the study. The antibodies were dosed weekly and liraglutide was dosed daily. Body composition and body weight were measured by qNMR prior to dosing, at 2 weeks, and at the end of the dosing period body weight. Gastrocnemius muscles were removed, and their weights were measured after the animals were terminated.

[5] = tested on: male C57/BL6 mice on high fat diet; assay: Diet-induced obesity model, semaglutide with Ab109 or Ab141 (Example 5); assay type: in vivo, mouse; details: antibody once weekly plus 0.040 mg/kg semaglutide daily, three weeks; FIGS. 13A-B
Protocol: Male C57/BL6 mice were a high-fat diet containing 60% fat then switched to a diet containing 45% fat. […] Body weight and body composition determined by qNMR were recorded at days 7, 14, and 21 after dosing. Gastrocnemius weight, inguinal, and perigonadal fat pad weights were recorded at the end of the study. Liver and terminal blood were collected to measure the levels of glucose and insulin.

[6] = tested on: male C57/BL6 mice on high fat diet; assay: Diet-induced obesity model, Ab109 with 0.01 or 0.04 mg/kg semaglutide (Example 9); assay type: in vivo, mouse
Protocol: Male C57/BL6 male mice (n=8/group) were placed on a 60% high fat diet at ˜6 weeks of age and maintained on the 60% high fat diet until 21 weeks of age (Groups 1-12), at which time the study began (day −7). On day −7, animals in groups 1-12 were switched to a 45% high fat diet and maintained on the 45% high fat diet until the animals were terminated. […] Body weight was measured three times per week and qNMR measurements of lean mass and fat mass were obtained pre-dose on day 0 and on days 7, 14 and 21. Fasting glucose was measured on day 18 after a 4 hour fast.
Animals in groups 3-12 were dosed with semaglutide daily for 3 weeks, then terminated. Animals in groups 1, 3, and 4 were treated with IgG control antibody, and those in groups 2, 5-12 were treated with myostatin activation inhibiting antibody treatment, for 3 weeks.
At termination, left gastrocnemius and quadriceps muscles were removed and frozen; the liver was weighed, one lobe was frozen; epididymal (perigonadal) adipose tissue was removed and weighed; inguinal (subcutaneous) adipose tissue was removed and weighed; and a terminal serum bleed was obtained.

[7] = in combination with liraglutide

B1: Ab109: anti-pro/latent myostatin antibody; CDRs in Tables 2d-f, variable domains Table 3, chains Table 4 (antibody)
heavy: EVQLVESGGGLVQPGGSLRLSCAASGFTFSSYGMSWVRQAPGKGLELVASFTGSGGTYYPDSVKGRFTISRDNAKNSLYLQMNSLRAEDTAVYYCARDLLIRFLEWSHYYGMDVWGQGTTVTVSSASTKGPSVFPLAPCSRSTSESTAALGCLVKDYFPEPVTVSWNSGALTSGVHTFPAVLQSSGLYSLSSVVTVPSSSLGTKTYTCNVDHKPSNTKVDKRV[human IgG4 Fc with S228P (EU numbers) left out]
light: DIVMTQSPLSLPVTPGEPASISCRSSQSLLHSSGHNFLHWYLQKPGQSPQLLIYEVSNRVSGVPDRFSGSGSGTDFTLKISRVEAEDVGVYYCMQQTQYPPTFGGGTKVEIKRTVAAPSVFIFPPSDEQLKSGTASVVCLLNNFYPREAKVQWKVDNALQSGNSQESVTEQDSKDSTYSLSSTLTLSKADYEKHKVYACEVTHQGLSSPVTKSFNRGEC
SEC-MALS Result (kDa) ([1]; input ratio mAb:pro-myostatin 1:1): 311.4 kDa | SEC-MALS Result (kDa) ([1]; input ratio mAb:pro-myostatin 3:1): 319.6 kDa | Terminal antibody exposure ([2]; dose 0.3 mg/kg): 2.8 µg/mL | Terminal antibody exposure ([2]; dose 1 mg/kg): 104.9 µg/mL | Terminal antibody exposure ([2]; dose 3 mg/kg): 67.3 µg/mL | Terminal antibody exposure ([2]; dose 10 mg/kg): 470.2 µg/mL | accumulation of total or latent myostatin in serum samples from dosed subjects ([3]; as compared to apitegromab): little or no accumulation of total myostatin | total circulating myostatin in serum ([3]; dexamethasone-treated mice, FIG. 8, FIG. 15A): lower levels of total circulating myostatin as compared to Ab2 treatment; also recorded: decrease in serum myostatin | Circulating total myostatin levels ([3]; dose 0.3 mg/kg, dexamethasone-treated mice): 159.6 ng/mL | Circulating total myostatin levels ([3]; dose 1 mg/kg, dexamethasone-treated mice): 45.7 ng/mL | Circulating total myostatin levels ([3]; dose 3 mg/kg, dexamethasone-treated mice): 48.4 ng/mL | Circulating total myostatin levels ([3]; dose 10 mg/kg, dexamethasone-treated mice): BLOQ | lean mass ([4]; antibody with liraglutide, FIG. 11E): lean mass increased; also recorded: greater increases in lean mass compared to Ab2 | gastrocnemius muscle mass ([4]; antibody with liraglutide, FIG. 11F): more effective at increasing gastrocnemius mass than Ab2 | subcutaneous inguinal fat pad fat mass [4, 7]: reduced the fat mass in the subcutaneous inguinal fat pad | visceral perigonadal fat pad fat mass [4, 7]: reduced the fat mass in the visceral perigonadal fat pad to a greater extent | body weight of mice on high fat diet ([4]; liraglutide daily, antibody weekly for four weeks, FIGS. 11A-D): lost more body weight compared to those treated with Ab2; also recorded: lost slightly less weight than those treated with liraglutide and an IgG control | fat mass ([4]; with liraglutide, FIG. 11G): decreased fat mass to a greater extent than Ab2 | fat mass loss (subcutaneous and epididymal adipose tissue weight) [5]: increased fat mass loss as compared to Ab109 or Ab141 alone | fat mass loss ([6]; Ab109 in combination with 0.01 mg/kg semaglutide, FIG. 19B): improved fat mass loss compared to those treated with 0.01 mg/kg semaglutide and IgG control | fat mass loss ([6]; Ab109 in combination with 0.04 mg/kg semaglutide, FIG. 19A, 19C, 0.04 mg/kg): improved fat mass loss compared to IgG control with semaglutide; also recorded: improved fat mass loss in a dose-dependent manner | quadriceps weight ([6]; Ab109 in combination with semaglutide, FIG. 21A): prevented this muscle loss | gastrocnemius muscle weight ([6]; Ab109 in combination with semaglutide, FIG. 21B): prevented this muscle loss | perigonadal fat pad loss ([6]; Ab109 in combination with semaglutide, FIG. 22A): only improved fat pad loss at select doses | inguinal fat pad loss ([6]; Ab109 in combination with semaglutide, FIG. 22B): improved inguinal fat pad loss | fat mass gain ([6]; Ab109 monotherapy without semaglutide, FIG. 19A): 7% | increase in lean mass ([6]; Ab109 treatment alone, FIG. 20C): 8.3% | body weight ([6]; Ab109 with 0.01 mg/kg semaglutide, FIGS. 18A-B): maintained steady body weight | lean mass change ([6]; Ab109 with 0.04 mg/kg semaglutide, FIG. 20A): blunted these lean mass losses and helped maintain a close-to-neutral lean mass change at 3 mg/kg and 10 mg/kg of Ab109

Source: patent publication US12338279B2, “Selective and potent inhibitory antibodies of myostatin activation” (SCHOLAR ROCK, INC., priority 2022, dated 2025)
